Structures are written as SMILES. Among all 2,800 compounds or so, fewer than 10 were called active. The call rests on the fitted dose curve; in most records, active means well fitted curve in the direction sought with a large enough effect; inconclusive means small, poorly fitted or top-dose-only effect, or another doubt; inactive means no such curve, though single readings can be large or run the other way. Some of the results follow.

This experiment deals with Metallo-beta-lactamase type 2 (Klebsiella pneumoniae) (UniProt C7C422). Put plainly: qHTS to identify inhibitors of the New Delhi Metallo-beta-lactamase (NDM): Meropenem screen against the machine-based learning selections. Further: % of control where 0% means no effect. The note with it: Purified NDM-1, meropenem hydrolysis, absorbance 300 nm; at 57.5 µM (top of the series) unless noted. In outline: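 NDM-1 (2 nM final) in 50 mM HEPES pH 7.0, 1 uM Zn2SO4, 0.01% Tween20 was preincubated with compounds for >30 min. Nitrocefin (16.7 uM final) was read at 485 nm after 15 min, and meropenem (50 uM final) at 300 nm after 30 min.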
UniProt C7C422, sequence (C7C422 whole entry, looked up): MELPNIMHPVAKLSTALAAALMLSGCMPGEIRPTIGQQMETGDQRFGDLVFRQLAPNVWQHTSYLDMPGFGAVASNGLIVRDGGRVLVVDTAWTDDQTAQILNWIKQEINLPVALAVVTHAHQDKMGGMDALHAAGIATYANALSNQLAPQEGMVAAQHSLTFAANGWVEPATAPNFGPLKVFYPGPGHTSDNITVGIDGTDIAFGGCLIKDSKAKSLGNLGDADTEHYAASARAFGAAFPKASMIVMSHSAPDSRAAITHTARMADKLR
In general terms: qHTS replaces the single test concentration by a dilution series.
Take `Cn1cc(C(=O)N2CC[C@@](C)(O)[C@@H](O)C2)c2ccccc21`: the activity change, negative = inhibition was inactive: 6.14% [at 38.4 µM]. Then `C=C[C@H]1CN2CC[C@H]1C[C@@H]2CNC(=O)Nc1ccc(Oc2ccccc2)cc1`, with inactive: 2.19%; and `COc1ccccc1-n1cc(C2=CCN(CCOCCO)CC2)cn1`, with inactive: 2.23% [at 38.4 µM]. In the case of `Cc1nc(-c2ccc(N(C)C)cc2)cc([C@H]2CN3CC[C@H]2C[C@@H]3COC(=O)NC(C)C)n1`, the activity change, negative = inhibition was inactive: 3.31% [at 38.4 µM].

In the case of `CC(C)(C)NC(=O)N1[C@H]2CC[C@@H]1c1cnc(-c3ccccc3)nc1C2`, the activity change, negative = inhibition is inactive: 5.5% [at 38.4 µM]. Then `COc1cc2c(cc1OCc1ccncc1)NC(=O)C21CCN(Cc2cccc(O)c2)CC1`, with inactive: -0.41% [at 38.4 µM]; and `NC(=O)c1ccc(-c2cccc3c2CCNC3)s1`, with inactive: 0.564% [at 38.4 µM]; and `CC(C)NC(=O)OC[C@H]1C[C@@H]2CCN1C[C@@H]2c1cc(C2CCCC2)nc(-c2ccncc2)n1`, with inactive: 8.98% [at 38.4 µM]. In the case of `CC(C)NC(=O)NC[C@H]1C[C@@H]2CCN1C[C@@H]2c1cc(C2CCCC2)nn1C` it was inactive: 1.42%; in that of `CCC(CC)c1cc([C@H]2CN3CC[C@H]2C[C@@H]3CNC(=O)c2ccc(C)cc2)nc(-c2ccncc2)n1`, inactive: 0.451% [at 38.4 µM]; in that of `COCC1(CNC2CCN(C)CC2)C[C@@H](O)[C@@H](O)C1` (stereo not given in full), inactive: 7.59% [at 76.7 µM]. In the case of `COCC(=O)NC[C@H]1C[C@@H]2CCN1C[C@@H]2CN1CCC(C)CC1` it was inactive: 0.281%; in that of `Cc1ccc(C(=O)NC[C@H]2C[C@@H]3CCN2C[C@@H]3c2cc(-c3ccccc3)nn2C)cc1`, inactive: -0.929%.

As for `CCCS(=O)(=O)NC[C@H]1C[C@@H]2CCN1C[C@@H]2c1cc(-c2ccccc2Br)nc(C)n1`, the activity change, negative = inhibition is inactive: 2.22% [at 38.4 µM]. In the case of `CN(C)CC(=O)Nc1ccc2n(c1=O)C[C@H]1C[C@@H]2CN(C(=O)c2ccc(F)cc2)C1` it was inactive: 46.5%; in that of `COCCNC(=O)[C@H]1CN2CCC1C[C@@H]2Cn1cc(-c2cccc(N)c2)nn1` (stereo not given in full), inactive: 0.788%; in that of `Cc1ccc2c(n1)N(C)[C@H](CO)CCN(CC(C)C)C2`, inactive: 3.32% [at 76.7 µM]. In the case of `CN(C)Cc1cn(C[C@H]2C[C@@H]3CCN2C[C@@H]3C(=O)Nc2ccccc2)nn1` it was inactive: -1.5%; in that of `CSc1ccc(-c2ccc(=O)n3c2[C@@H]2C[C@@H](CN(S(C)(=O)=O)C2)C3)cc1`, inactive: 25.3%.

Consider `O=C(NC1CC1)[C@H]1CN2CCC1C[C@@H]2Cn1cc(CSc2ccccc2)nn1` (stereo not given in full), for which the activity change, negative = inhibition is inactive: 4.37%.

These data come from PubChem BioAssay AID1794842 (National Center for Advancing Translational Sciences (NCATS), 2023).
